Data: the BET-seq Pho4 binding data (Le et al. 2018)
This is one part of the list. The energies were worked out here from pooled read counts, against the library average; single values are noisy.

Target: T1, Pho4 (S. cerevisiae) (UniProt P07270)
T1 sequence: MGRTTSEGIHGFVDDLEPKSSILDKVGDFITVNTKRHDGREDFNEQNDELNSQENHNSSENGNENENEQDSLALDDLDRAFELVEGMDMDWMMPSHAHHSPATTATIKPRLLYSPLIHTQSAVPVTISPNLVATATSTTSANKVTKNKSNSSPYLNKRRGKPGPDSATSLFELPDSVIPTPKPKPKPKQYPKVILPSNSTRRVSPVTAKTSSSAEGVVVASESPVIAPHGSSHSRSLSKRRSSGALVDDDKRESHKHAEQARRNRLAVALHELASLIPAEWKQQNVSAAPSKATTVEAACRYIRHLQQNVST
Assay: relative binding free energy (BET-seq); higher = weaker binding
Conditions: reference: library average

Sequence	relative binding free energy [kcal/mol]
TTGGCCACGTGTGGGG	0.01
TGGAACACGTGTGTTT	0.01
AGGTTCACGTGTGAGC	0.24
GATGTCACGTGAATAT	0.44
GGTGGCACGTGGTTTG	-0.06
GGGTTCACGTGGACGT	0.33
GTGTACACGTGCTGTT	-0.01
ATAAACACGTGTTATA	0.15
CAGTTCACGTGTAAGT	0.39
GGAAACACGTGGGTAT	0.04
TGCTGCACGTGAGGCG	0
TCCTTCACGTGTTTTT	0.44
TATGACACGTGGGTGT	-0.13
TATGTCACGTGGGACT	0.04
ACGTTCACGTGAGAGT	0.4
TTGGACACGTGGGTGC	-0.07
TGCGGCACGTGGTTTC	-0.11
CAGGCCACGTGTAGGT	-0.06
AGAATCACGTGAGTAT	0.36
TATTGCACGTGAGTAT	0.18
TATTACACGTGTTGTG	-0.03
GGTGGCACGTGGAAGA	-0.03
GGGCTCACGTGAGGAA	0.57
TTTAGCACGTGAATGA	0.24
GTCTTCACGTGTTGTT	0.23
TTTCGCACGTGTAGTT	0.06

Sequence	relative binding free energy [kcal/mol]
TAGTTCACGTGGGGAG	0.26
CAATTCACGTGGGTTG	0.09
TGTTCCACGTGGTTAT	0.05
TGTGGCACGTGCGTAC	-0.2
GGCGCCACGTGGGGGG	-0.24
GGTTACACGTGACTTG	0.24
CTGGGCACGTGTGTGT	0.04
GGCGTCACGTGCTTTT	0.12
CATTTCACGTGTGTAG	0.32
GAGTGCACGTGTATAG	0.03
AGGTACACGTGGGATG	-0.17
GGTTGCACGTGAACGG	0.28
TGGGGCACGTGCTTCT	-0.19
GTTTGCACGTGTATGT	0.15
ACATTCACGTGTTTTT	0.28
ACTTTCACGTGTGGAG	0.31
AGGAGCACGTGAGTAT	0.2
AGATGCACGTGCGTGG	-0.18
TCTTTCACGTGTTCGG	0.17
AGTCCCACGTGGGTTG	-0.23
TTTAGCACGTGTTCTT	-0.06
TTTGGCACGTGCGCGT	-0.19
ATGTTCACGTGGGACG	0.24
ATGTTCACGTGGATAT	0.23
GACTTCACGTGTTTGG	0.25
TGATACACGTGTTGTC	0.15

Sequence	relative binding free energy [kcal/mol]
TATTCCACGTGCGGTG	0.06
CCTGGCACGTGTGAGG	-0.06
TGTCACACGTGGGCGA	0.03
TTGGGCACGTGCTTCT	-0.07
TAAAACACGTGTAGTG	0.05
AGGAGCACGTGTGAGT	0
GTGATCACGTGAGGCT	0.24
AATTGCACGTGGGGAG	-0.1
CGTTACACGTGTTGAG	0.2
TTCGGCACGTGACGTG	0
ATTGACACGTGAGGTA	0.06
TGAAGCACGTGGACTG	-0.07
GATGGCACGTGTGATA	0.19
TGTCGCACGTGCGATG	-0.05
GATGGCACGTGTGCTG	-0.09
TGGTTCACGTGTGTCG	0.29
GAATTCACGTGAACGT	0.57
GGTAGCACGTGGAGTG	-0.04
GGTCACACGTGTGAAG	0.23
AGTTACACGTGTTCGA	0.13
CTCGTCACGTGTAAGT	0.24
TAAGCCACGTGGGTAT	-0.12
GATGGCACGTGGTTCT	-0.2
TTGGGCACGTGTGCAG	-0.19
ATTGGCACGTGTTCTT	-0.03
ATGTTCACGTGAGGGT	0.35

Sequence	relative binding free energy [kcal/mol]
CAGTCCACGTGGGGGG	-0.11
CTTAACACGTGTTGGG	0.02
TGTACCACGTGGAGAG	0
GAAGGCACGTGATGTA	0.11
TGGCTCACGTGATGGG	0.23
GTCTGCACGTGATGGA	0.15
TGTTCCACGTGGGAGT	0
GTCTGCACGTGTTGTG	0.12
AGTGTCACGTGTTGAA	0.12
ATGAACACGTGTTGTT	-0.11
TGGCGCACGTGCCGTG	-0.14
TTTCTCACGTGACTGT	0.29
TGTAGCACGTGGTGGG	-0.19
AGTAGCACGTGGAGAG	-0.02
AAAAGCACGTGTATTA	0.1
ATATACACGTGGTGAT	-0.21
CTAGTCACGTGGAGAG	0.03
TTAAACACGTGTGTGC	0.04
TATTTCACGTGCCTTG	0.12
CTAATCACGTGGTAGA	0.15
GCTATCACGTGGGAGT	0.14
TGTCTCACGTGAGGTA	0.28
TAATTCACGTGTAGAT	0.54
CTTAACACGTGTTAGG	-0.08
AGTATCACGTGTACGG	0.02
TTTTCCACGTGTAGTC	0.29

Sequence	relative binding free energy [kcal/mol]
ATATGCACGTGAGTCG	0.23
AAAGGCACGTGAAAGG	0.07
TGGCACACGTGGGGAA	0.01
GGTGTCACGTGCATGT	0.17
CTGGACACGTGGTATG	-0.14
GTAGGCACGTGTTTGG	0.02
TTCATCACGTGTTTTG	0.2
GGTCTCACGTGAGAAG	0.41
TAGTTCACGTGGCCGT	0.16
CGGAGCACGTGTGAGA	0.09
TAGGCCACGTGGAGGG	-0.15
ATTAGCACGTGGTTTG	-0.05
TGGGGCACGTGAATGT	0.12
TGGTTCACGTGCTATT	0.18
ATTTGCACGTGGTAAG	-0.1
GTTGCCACGTGGTTGG	-0.07
GGTGACACGTGTGCTG	0.1
GGTGTCACGTGGAGTC	0.1
TAGATCACGTGGGCTT	0.06
GTTTTCACGTGGTGGG	0.31
GTGGCCACGTGTGCTT	0.03
TCTATCACGTGATGTG	0.19
TATCTCACGTGGAGTG	0.27
TTTTACACGTGGGAGC	0.12
GGGGTCACGTGGGGGC	0.06
GTCGGCACGTGTACGG	0.05

Sequence	relative binding free energy [kcal/mol]
TGTGGCACGTGATTCT	0.14
GGTATCACGTGGGGGG	0.02
AGCAGCACGTGGGTGA	-0.2
CTTATCACGTGGGTTC	-0.01
TTTATCACGTGGGTAC	0.05
TATAACACGTGGTCGG	-0.17
TCGGGCACGTGACGGG	-0.01
GTGACCACGTGATGTG	0.11
TGGTTCACGTGGCATT	0.14
TTTTGCACGTGCGCGT	-0.12
TCTTTCACGTGGTGAG	0.3
CGTTGCACGTGTTCAT	0.02
TAGAGCACGTGGTTAG	-0.05
ACACGCACGTGGAGGG	-0.13
GGGCGCACGTGGTGCA	-0.11
GGTTTCACGTGTGCGC	0.26
TTGTTCACGTGTATTC	0.31
GTTATCACGTGTGGGT	0.3
CTTTGCACGTGCTGGT	-0.11
TTGTTCACGTGGTGAA	0.14
ACATGCACGTGGTCGG	-0.09
GTCTTCACGTGGGTGC	0.22
TGTGTCACGTGTCAGT	-0.09
TAATACACGTGGCGTT	-0.09
ACTGTCACGTGTTAAG	0.12
TTTCGCACGTGACTTG	0.06

Sequence	relative binding free energy [kcal/mol]
GTTTTCACGTGAGGGA	0.41
AGTAGCACGTGGCAGG	-0.16
GTCTACACGTGTTTTG	0.14
ATAGGCACGTGGTAGT	-0.15
AGGTCCACGTGAGATG	0.24
AGGGGCACGTGTTACG	0.01
ATTAGCACGTGGTCAG	-0.31
CTATTCACGTGTTGCG	0.22
TGTATCACGTGTAAGG	0.16
CTTGGCACGTGGTTTC	-0.03
CAGTTCACGTGGGAGT	0.18
ATGTTCACGTGAGTTT	0.52
TTGTGCACGTGTGCAA	0.02
GTGTTCACGTGTATAC	0.29
GCAAGCACGTGGGTGT	-0.28
ATGGGCACGTGAGAAT	0.1
TTCAGCACGTGTGGCT	-0.12
CTTGGCACGTGTGGTG	0.01
TTGAACACGTGGCGGG	-0.01
TGGTACACGTGGTTCG	0.03
GAAGTCACGTGTATTT	0.2
GTAGTCACGTGTGACT	0.24
ATGCGCACGTGGGAAG	-0.19
ACGTGCACGTGTTGTA	-0.2
GGTTTCACGTGAAGTT	0.45
AGGAACACGTGTTTAG	0

Sequence	relative binding free energy [kcal/mol]
GAGAGCACGTGTGGGG	-0.01
CGGGGCACGTGCATAG	-0.17
TTTAACACGTGACGTA	0.29
GCCGTCACGTGAGGGT	0.26
GGGCACACGTGTGGCT	0.14
TTTGGCACGTGTTAGT	-0.03
ATGGGCACGTGAAAGT	0.07
TGTACCACGTGGTTTC	-0.01
GTATTCACGTGTAGGC	0.23
GATTGCACGTGCAGTT	0.03
CGAGGCACGTGGGCAG	-0.29
CGGTGCACGTGCGTGT	-0.05
AATGTCACGTGGGAGG	-0.1
TTCTGCACGTGCGTTT	0.08
ATGTGCACGTGGCTTG	0.02
GAGGGCACGTGGATTA	0.07
TAGGTCACGTGTTTTG	0.25
ATTCGCACGTGGTGTA	-0.23
ATTTGCACGTGTTCGA	0.01
GATCGCACGTGCTGTG	0.01
GAGGGCACGTGGCATT	-0.26
CGGTTCACGTGGTTAT	0.32
TCAATCACGTGGATGT	0.21
GATCGCACGTGTGGTA	0.13
TGGTTCACGTGACGAT	0.38
CGGCTCACGTGCGGGG	0.1

Sequence	relative binding free energy [kcal/mol]
GTTAACACGTGAGGAA	0.42
TATCGCACGTGGTAGT	-0.1
TGATGCACGTGGAGGC	-0.17
TGGGACACGTGGACGG	0.14
GACGGCACGTGGCGTT	-0.03
GGGAGCACGTGTCGAG	0.03
TAGGGCACGTGGGAAG	-0.11
TTCTGCACGTGGGGCA	-0.2
AAAGGCACGTGGGGGG	-0.17
GTGGACACGTGAGTAA	0.08
TGGAGCACGTGTGGCG	-0.07
GGGTGCACGTGAATTT	0.21
GAGTTCACGTGGGCTT	0.32
GAGTGCACGTGATGAG	0.32
GGGGTCACGTGCTGGT	0.05
AGGTTCACGTGAACTT	0.33
CTAGGCACGTGGTGGC	-0.22
ATGCGCACGTGGGTTT	-0.14
TTGGTCACGTGATCGG	0.19
TGGTACACGTGTGTGT	0.04
TGTAACACGTGAGATG	0.28
AGCGTCACGTGGGAGT	0.18
